Each structure is given as a SMILES string. The campaign covered roughly 2,200 compounds. Fewer than 10 were called active. This is one part of the list. Where no call is shown, the source marks the result inconclusive.

This passage reports percent labeling results from PubChem BioAssay AID2202238 (Ras Initiative Chemistry Research Team, Frederick National …, 2025).

The target in the assay is GTPase KRas (Homo sapiens) (UniProt P01116). Nature of the assay: Covalent labelling of cysteine mutants by fragments, read by mass spectrometry (AID 2202238). The arrangement: protein at 5 µM with 500 µM competing thiol for 1.5 h. Conditions: KRAS G12D cysteine mutants, disulfide tethering, MALDI-TOF labeling; stronger effect = higher value; H27C mutant labeling; fragment at 500 µM.
UniProt P01116, sequence (P01116 whole entry, looked up, the tested form may be a part): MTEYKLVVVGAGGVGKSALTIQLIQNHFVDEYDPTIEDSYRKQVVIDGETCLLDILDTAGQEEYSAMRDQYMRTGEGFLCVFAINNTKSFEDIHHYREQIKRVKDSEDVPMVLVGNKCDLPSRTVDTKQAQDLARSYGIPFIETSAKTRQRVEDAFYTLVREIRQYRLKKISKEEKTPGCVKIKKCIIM
On to `COc1ccccc1Cc1noc(C2CCN(C(=O)CCS)CC2)n1`, for which the percent labeling was 33.6%. In the case of `O=C(NCCS)[C@H]1CCCN1C(=O)c1ccccc1` it was 33.8%; in that of `Cc1cnc(C2CCN(C(=O)CCS)CC2)s1`, 44%.

In turn, `CS(=O)(=O)c1cccc(C(NC(=O)CCS)c2ccc(F)cc2F)c1` (stereo unspecified) registered a percent labeling of 31.9%.

Regarding `O=C(CC1CN(Cc2ccccc2)CCO1)NCCS` (stereo unspecified), the percent labeling is 41.2%. In the case of `O=C(COc1c(Cl)cccc1Cl)NCCS` it was 40.5%; in that of `Cc1sc2nc(CN3CCN(C(=O)CCS)CC3)[nH]c(=O)c2c1C`, 35.6%; in that of `O=C(NCCS)C1(Cc2cccc(Cl)c2)CCCCC1`, 21.2%. In the case of `COCCn1cc(C#N)c(NC(=O)CCS)n1` it was 35.1%; in that of `Cc1nn(-c2ccccc2)c2ncc(C(=O)NCCS)cc12`, 23.2%.

Turning to `O=C(CCS)N1CCCc2c(F)cc(F)cc21`, the percent labeling is 33.8%. In the case of `O=C(CCS)NC1COc2ccccc2C1O` (stereo unspecified) it was 28.4%. The value for `O=C(NCCS)c1ccc2c(c1)CCCN2C(=O)c1ccccc1` was 28.2%. The value for `Cc1c(C(=O)NCCS)c(=O)oc2ccc(O)cc12` was 41.7%; that for `CC(C)(NC(=O)c1ccccc1)C(=O)NCCS` was 20.9%; that for `CC(C)(C(=O)NCCS)c1csc(-c2cccs2)n1` was 33.4%.

The compound `O=C(NCCS)c1cc2c(Cl)cncc2s1` displayed a percent labeling of 35.5%.

`O=C(CCS)Nc1ccc(OCc2cccc(F)c2)c(F)c1` displayed a percent labeling of 25%. The value for `O=C(NCCS)c1cnn(Cc2ccccc2Cl)c1` was 46.6%.

`O=C(NCCS)C1CCN(S(=O)(=O)c2cccnc2)CC1` displayed a percent labeling of 35.1%. In the case of `O=C(CCS)NCc1cc(-c2ccc3c(c2)OCCO3)on1` it was 33.2%. With `O=C(NCCS)c1cc(Br)c2nccnc2c1`, the percent labeling was determined as 34.1%. In the case of `COc1ccc2c(c1)C(CCNC(=O)CCS)=CC2` it was 28.8%. Turning to `O=C(NCCS)c1ccc(Cn2cccn2)cc1`, the percent labeling came out at 45.3%.

Regarding `O=C(CCS)Nc1ccc(-n2cncn2)nc1`, the percent labeling came to 39.9%. In the case of `Cc1cc2scc(CC(=O)NCCS)c2s1` it was 27.8%; in that of `COC(=O)c1ccc2[nH]cc(C3CCN(C(=O)CCS)CC3)c2c1`, 24.7%; in that of `O=C(CCS)NCc1cnn(-c2ccccc2)c1`, 29.9%. For the compound `O=C(NCCS)c1csc(CCc2ccccc2)n1`, the percent labeling is 30.1%. For the compound `CC(C(=O)NCCS)n1ccnc1-c1ccccc1` (stereo unspecified), the percent labeling came to 33%. The value for `O=C(NCCS)C1COc2cc(F)ccc2C1` (stereo unspecified) was 22.9%. The value for `CC(C(=O)NCCS)c1cn(C)c2ccccc12` (stereo unspecified) was 26%; that for `O=C(CCS)N(Cc1ccco1)c1ccccc1` was 22.9%; that for `O=C(CCS)N1CCC(Oc2ccccn2)CC1` was 46.1%. The value for `O=C(CCS)NCc1cnc2ccc(Br)cn12` was 41.7%; that for `COc1ccc(C2(NC(=O)CCS)CCC2)cn1` was 33.8%; that for `Cc1nn(-c2ccc(Cl)cc2)c(C)c1CC(=O)NCCS` was 38.7%. In turn, `O=C(CCS)NCCc1csc(-c2ccc(Cl)cc2)n1` had a percent labeling of 32.2%. In the case of `O=C(CCS)N1CCN(CCn2cccn2)CC1` it was 29.6%; in that of `O=C(CC[C@@H]1CC[C@H](C(F)(F)F)O1)NCCS`, 29.6%; in that of `CC(C(=O)NCCS)n1ccc(C(F)(F)F)n1` (stereo unspecified), 24.5%.

In turn, `CN(C(=O)c1ccc(C(=O)NCCS)cc1)c1ccccc1` had a percent labeling of 41.3%. The value for `O=C(NCCS)C1(n2cnnn2)CCCCC1` was 34.1%; that for `COc1ccc(C)c2[nH]c(C(=O)NCCS)cc12` was 26.4%. The value for `Cn1ccc(N(Cc2ccccc2)C(=O)CCS)n1` was 32.4%. As for `Cn1c(CNC(=O)CCS)cc(=O)n(C)c1=O`, the percent labeling came out at 27.9%. `O=C(NCCS)c1cccn1-c1ccc2c(c1)OCCO2` registered a percent labeling of 34.1%. Compound `Cc1nn(C)c(N(C)C)c1CNC(=O)CCS` gave a percent labeling of 29.1%. `O=C(Cn1nc2n(c1=O)CCCCC2)NCCS` came in with a percent labeling of 30.2%. The value for `COc1cc(C(=O)NCCS)cc(OC)c1O` was 42%; that for `Cc1cc(C(=O)NCCS)nn1-c1ccccc1F` was 42.8%. The value for `O=C(Nc1ccccc1C(=O)NCCS)c1ccccc1` was 23%; that for `CC1(Cc2cc(Cl)cs2)CCCN1C(=O)CCS` (stereo unspecified) was 44.6%. In the case of `O=C1CCC(N2Cc3cc(C(=O)NCCS)ccc3C2=O)C(=O)N1` (stereo unspecified) it was 42.3%; in that of `O=C(CCS)NC1CC(Cn2cncn2)C1` (stereo unspecified), 32.3%; in that of `O=C(CCS)Nc1ccc(=O)n(Cc2ccccc2)c1`, 41.8%. Compound `O=C(NCCS)C1CCN(S(=O)(=O)c2ccccc2-c2ccccc2)CC1` gave a percent labeling of 18.4%. The value for `O=C(NCCS)C1CCCN(C(=O)c2ccncc2)C1` (stereo unspecified) was 37.8%; that for `O=C(CCS)N(Cc1nc(C2CCCCCC2)no1)C1CC1` was 33%; that for `O=C(Cc1ccc(-n2cccn2)cc1)NCCS` was 27.3%.

For `CCc1[nH]c(-c2ccc(Cl)cc2)nc1C(=O)NCCS`, the percent labeling came to 29.9%. In the case of `Cc1ccc(-c2nn(C)cc2C(=O)NCCS)o1` it was 34%; in that of `O=C1NCC(C(=O)NCCS)c2ccccc21` (stereo unspecified), 30%.

With `Cc1ccn(CC(C)(O)C(=O)NCCS)c(=O)c1` (stereo unspecified), the percent labeling was 29.8%. The value for `O=C(Cn1c(=O)ccn(Cc2ccccc2)c1=O)NCCS` was 37.5%; that for `O=C(NCCS)c1cnn2cc(Br)cnc12` was 59.1%. The value for `CC1(C)CCc2nc(NC(=O)CCS)sc2C1` was 26.5%; that for `O=C(NCCS)c1ccc(CN2CCCC2)o1` was 56.8%. In turn, `CC(=O)N1CC(C(=O)NCCS)Oc2ccccc21` (stereo unspecified) had a percent labeling of 29.3%. The value for `Cc1cc(C)n(Cc2cccc(NC(=O)CCS)c2)n1` was 44.8%.

`O=C(NCCS)C1CCCN1C(=O)Cc1cn2ccsc2n1` (stereo unspecified) had a percent labeling of 24.2%.
